Hit rate of the full screen: of about 45,000 compounds, about 65 (0.1%) were called active. Calls follow the shape of the dose curve; as a rule, active = well fitted activation curve with a large enough effect; inconclusive = small, poorly fitted or top-dose-only effect; inactive = no such curve, though single readings can be large or run the other way. The list shows a part of the results.

In the assay the target is Galactocerebrosidase (Homo sapiens) (UniProt P54803). The assay is described as follows: A Novel Cell-Based Assay to Identify Small Molecules for B -Galactocerebrosidase. Also: 0% is about no effect; nearly all actives have a fitted effect of over 65% in size. Conditions: 145M-Twi-hGALC-G270D cells (Twitcher mouse brain line with human GALC G270D), HMU-beta-Gal fluorescence, 48 h; series mostly up to 57.5 µM; activation: at the top concentration. The method in brief: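 Brain-derived Twitcher mouse 145M-Twi cells stably expressing human GALC-G270D or wild-type GALC, treated live, then residual GALC activity read by fluorescence of HMU-b-Gal substrate (0.1 mM final) in citrate-phosphate buffer pH 5.2 with sodium taurocholate. Signal increase indicates enhancement.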
UniProt P54803, sequence (P54803 whole entry, looked up): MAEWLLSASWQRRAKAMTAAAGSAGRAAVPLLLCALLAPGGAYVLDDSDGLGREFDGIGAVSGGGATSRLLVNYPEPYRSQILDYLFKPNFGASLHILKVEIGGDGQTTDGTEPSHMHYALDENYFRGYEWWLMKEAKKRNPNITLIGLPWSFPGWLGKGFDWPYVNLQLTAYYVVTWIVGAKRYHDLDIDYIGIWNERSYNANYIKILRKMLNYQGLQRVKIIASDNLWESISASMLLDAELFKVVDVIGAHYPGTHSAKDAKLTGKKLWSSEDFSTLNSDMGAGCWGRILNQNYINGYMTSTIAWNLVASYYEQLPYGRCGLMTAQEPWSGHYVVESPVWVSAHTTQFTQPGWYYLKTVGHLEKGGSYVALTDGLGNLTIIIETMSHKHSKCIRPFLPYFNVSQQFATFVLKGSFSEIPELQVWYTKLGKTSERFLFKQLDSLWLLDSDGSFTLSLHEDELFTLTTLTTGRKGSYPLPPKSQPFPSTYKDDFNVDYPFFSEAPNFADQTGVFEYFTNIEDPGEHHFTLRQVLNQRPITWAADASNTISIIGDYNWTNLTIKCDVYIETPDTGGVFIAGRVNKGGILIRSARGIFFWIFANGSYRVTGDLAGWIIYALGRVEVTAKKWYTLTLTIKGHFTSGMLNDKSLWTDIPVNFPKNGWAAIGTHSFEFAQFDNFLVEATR
For the compound `O=C(OCC1(COC(=O)c2cccnc2)CCCC(COC(=O)c2cccnc2)(COC(=O)c2cccnc2)C1O)c1cccnc1`, the “activation” value is inactive: -8.21%.
On to `COc1ccc(C)cc1NC(=O)c1cc(S(=O)(=O)N2CCC(C)CC2)cn1C`, for which the “activation” value was inactive: -9.49%.
Under `Cc1cccc(N2CCN(C(=O)c3c(C)oc4ncnc(N5CCOCC5)c34)CC2)c1C` stands inactive: -9.71%; under `Nc1cc(=O)nc(SCC(=O)Nc2ccc(F)cc2)n1-c1cccc(Cl)c1`, inactive: -16.6%.
Under `Cc1nn(C(=O)COc2ccccc2Br)c(C)c1Sc1ccccc1` stands inactive: -17.2%.
As to `COc1ccc(CCN2C(=O)N(c3ccc(C)cc3)C(=O)C2CC(=O)Nc2ccc(F)cc2)cc1` (stereo not given), the “activation” value is inactive: -16.5%.
For `Cn1c(=O)c2[nH]cnc2n(C)c1=O`, the “activation” value was inactive: -8.15%.
Then `COc1cccc(NC(=O)c2sc3nc(C)c(C(=O)Nc4ccc(Cl)cc4)c(-c4ccc(Br)cc4)c3c2N)c1`, with inactive: -14%.
Under `O=C(CSc1n[nH]c(-c2ccccc2)n1)N1CCN(c2ccccc2F)CC1` stands inactive: 5.06%; under `CCc1ccc(NC(=O)C2CCC(CNS(=O)(=O)c3ccc4c(c3)C(C)(C)C(=O)N4C)CC2)cc1` (stereo not given), inactive: -11%.
Take `COc1ccc2c(CNCc3ccccc3OC)c(C(=O)O)n(Cc3ccc(F)cc3Cl)c2c1`: the “activation” value was inactive: -15.4%.
Take `Cc1cccc(NC(=O)c2sc3nc(-c4ccccc4)cn3c2C)c1C`: the “activation” value was inactive: 7%.
Under `CCOc1ccc(C(=O)N(Cc2cc(OC)c(OC)c(OC)c2)c2ccccn2)cc1` stands inactive: -39.2%; under `OCc1cnc(SCc2ccc(F)cc2)n1Cc1ccc(F)cc1`, inactive: -16.1%; under `COc1ccc2c(Sc3ccc(C)cc3)c(C(=O)NCCc3ccccc3)[nH]c2c1`, inactive: -17.1%.
Then `Cc1cc(OCCCn2c(CCNC(=O)C3CCCCC3)nc3ccccc32)ccc1Cl`, with inactive: -20.6%.
As to `COc1ccc(N(CC(=O)Nc2cccc(C(C)=O)c2)S(=O)(=O)c2ccccc2)c(OC)c1`, the “activation” value is inactive: -11.3%.
Then `CCOC(=O)C1=C(C)NC(=O)NC1c1cn(-c2ccccc2)nc1-c1ccc(OC(C)C)cc1` (stereo not given), with inactive: -11.1%; and `Cc1nn(C)c2c1c(C(F)(F)F)cc(=O)n2C(C)C(=O)NCCc1ccccc1` (stereo not given), with inactive: -5.3%; and `O=C(Nc1nc2n(n1)C(c1ccc(Cl)cc1)C=C(c1ccccc1)N2)c1ccco1` (stereo not given), with inactive: -8.34%.
Under `CCc1nn(CC(=O)NCCCN2CCN(CC)CC2)c(=O)c2cc3occc3n12` stands inactive: -5.89%; under `CCOc1ccc(S(=O)(=O)c2cn(Cc3ccccc3C)c3ccc(OC)cc3c2=O)cc1`, inactive: -17.5%.
Regarding `CCCOc1ccc(-c2nonc2NC(=O)c2oc3ccc(Cl)cc3c2C)cc1OCCC`, the “activation” value was inactive: -11.3%.
For the compound `COc1ccccc1N(CC(=O)Nc1ccc2c(c1)OCO2)S(=O)(=O)c1ccc(C)cc1`, the “activation” value is inactive: 7.8%.
As for `O=C(c1ccc(F)cc1)N1CCC(c2nc(-c3ccc(S(=O)(=O)N4CCCC4)cc3)no2)CC1`, the “activation” value is inactive: -12.4%.
